Results reported in the supplement of paper PMC8948288.
Shown are siRNA guide strands that differ only in the seed, positions 2 to 7.

Legend:
[1] = tested on: GL261; assay: cell viability relative to siNT1 (ATP content); H4 human neuroglioma and GL261 mouse glioma; higher = less toxic; conditions: siRNA concentration 25 nM; 96 h; mouse
Description: (§1)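 Arrayed screen of all 4096 6mer seeds. Each seed sits at guide-strand positions 2-7 of a neutral 19mer siRNA backbone (siNT1-based, passenger strand 2'-O-methyl modified at positions 1-2 to block RISC loading, 3' DNA overhangs). The guide strand is built here as U + seed + ACAUGUAAACCA. Cells were reverse transfected in triplicate in 384-well plates (H4 at 10 nM, GL261 at 25 nM) with Lipofectamine RNAiMAX. Viability was read as ATP content (CellTiter-Glo) 96 h after transfection and normalised to siNT1 (%).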

[2] = tested on: H4; assay: as above; conditions: siRNA concentration 10 nM; 96 h; human
Description: as §1
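Also: cells reverse transfected with siRNA duplexes via lipid reagent, ATP read by luminescence, triplicate wells, values scaled to mean viability with non-targeting control siNT1.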

Sequence | cell viability [1] | cell viability [2]
UAAAAAAACAUGUAAACCA | 86% | 85.6%
UAAAAACACAUGUAAACCA | 54.4% | 89.2%
UAAAAAGACAUGUAAACCA | 72.7% | 99.7%
UAAAAAUACAUGUAAACCA | 55.9% | 87%
UAAAACAACAUGUAAACCA | 65.3% | 101%
UAAAACCACAUGUAAACCA | 36.9% | 71.6%
UAAAACGACAUGUAAACCA | 50% | 79.9%
UAAAACUACAUGUAAACCA | 68.8% | 83.3%
UAAAAGAACAUGUAAACCA | 68.4% | 99.2%
UAAAAGCACAUGUAAACCA | 46.5% | 77.2%
UAAAAGGACAUGUAAACCA | 56.4% | 91.3%
UAAAAGUACAUGUAAACCA | 59.8% | 73.3%
UAAAAUAACAUGUAAACCA | 55.7% | 82.7%
UAAAAUCACAUGUAAACCA | 39.9% | 87.8%
UAAAAUGACAUGUAAACCA | 62.7% | 102%
UAAAAUUACAUGUAAACCA | 60.9% | 85.5%
UAAACAAACAUGUAAACCA | 59% | 103%
UAAACACACAUGUAAACCA | 58.3% | 101%
UAAACAGACAUGUAAACCA | 53.9% | 91.7%
UAAACAUACAUGUAAACCA | 51.5% | 106%
UAAACCAACAUGUAAACCA | 64.7% | 101%
UAAACCCACAUGUAAACCA | 24.8% | 49.8%
UAAACCGACAUGUAAACCA | 89.5% | 108%

Sequence | cell viability [1] | cell viability [2]
UAAACCUACAUGUAAACCA | 62.6% | 103%
UAAACGAACAUGUAAACCA | 62.8% | 97.2%
UAAACGCACAUGUAAACCA | 44.7% | 102%
UAAACGGACAUGUAAACCA | 55.6% | 96.5%
UAAACGUACAUGUAAACCA | 67% | 101%
UAAACUAACAUGUAAACCA | 76.1% | 84.3%
UAAACUCACAUGUAAACCA | 35.2% | 84.6%
UAAACUGACAUGUAAACCA | 68.9% | 96.1%
UAAACUUACAUGUAAACCA | 55.9% | 108%
UAAAGAAACAUGUAAACCA | 53.3% | 85.9%
UAAAGACACAUGUAAACCA | 36.8% | 80.7%
UAAAGAGACAUGUAAACCA | 60.9% | 88%
UAAAGAUACAUGUAAACCA | 55.4% | 109%
UAAAGCAACAUGUAAACCA | 52.4% | 82.1%
UAAAGCCACAUGUAAACCA | 25.7% | 45%
UAAAGCGACAUGUAAACCA | 52.6% | 106%
UAAAGCUACAUGUAAACCA | 31.2% | 66.9%
UAAAGGAACAUGUAAACCA | 60.3% | 84.4%
UAAAGGCACAUGUAAACCA | 35.5% | 40.3%
UAAAGGGACAUGUAAACCA | 57.7% | 67.8%
UAAAGGUACAUGUAAACCA | 57.6% | 56.5%
UAAAGUAACAUGUAAACCA | 55.9% | 85.2%
UAAAGUCACAUGUAAACCA | 38.7% | 91.5%

Sequence | cell viability [1] | cell viability [2]
UAAAGUGACAUGUAAACCA | 58.2% | 91.6%
UAAAGUUACAUGUAAACCA | 41.4% | 101%
UAAAUAAACAUGUAAACCA | 68.1% | 86.5%
UAAAUACACAUGUAAACCA | 55% | 70.2%
UAAAUAGACAUGUAAACCA | 62% | 112%
UAAAUAUACAUGUAAACCA | 63.1% | 115%
UAAAUCAACAUGUAAACCA | 66.8% | 109%
UAAAUCCACAUGUAAACCA | 24.5% | 79.6%
UAAAUCGACAUGUAAACCA | 75% | 92.2%
UAAAUCUACAUGUAAACCA | 60.2% | 90.4%
UAAAUGAACAUGUAAACCA | 55.2% | 72.5%
UAAAUGCACAUGUAAACCA | 22.1% | 34.9%
UAAAUGGACAUGUAAACCA | 43.7% | 76.2%
UAAAUGUACAUGUAAACCA | 51.7% | 68.9%
UAAAUUAACAUGUAAACCA | 73.8% | 96.3%
UAAAUUCACAUGUAAACCA | 47.8% | 71.7%
UAAAUUGACAUGUAAACCA | 58.3% | 77.8%
UAAAUUUACAUGUAAACCA | 72.6% | 92.2%
UAACAAAACAUGUAAACCA | 53.2% | 106%
UAACAACACAUGUAAACCA | 41.4% | 114%
UAACAAGACAUGUAAACCA | 47.5% | 99%
UAACAAUACAUGUAAACCA | 59.7% | 110%
UAACACAACAUGUAAACCA | 30.8% | 118%

Sequence | cell viability [1] | cell viability [2]
UAACACCACAUGUAAACCA | 23.5% | 73.7%
UAACACGACAUGUAAACCA | 38.8% | 96.1%
UAACACUACAUGUAAACCA | 30.1% | 80.8%
UAACAGAACAUGUAAACCA | 55.5% | 114%
UAACAGCACAUGUAAACCA | 13.4% | 63.9%
UAACAGGACAUGUAAACCA | 52.4% | 92.5%
UAACAGUACAUGUAAACCA | 38.8% | 81%
UAACAUAACAUGUAAACCA | 33.7% | 101%
UAACAUCACAUGUAAACCA | 18.6% | 72.8%
UAACAUGACAUGUAAACCA | 50.7% | 111%
UAACAUUACAUGUAAACCA | 53.7% | 101%
UAACCAAACAUGUAAACCA | 85.9% | 122%
UAACCACACAUGUAAACCA | 61.6% | 97.2%
UAACCAGACAUGUAAACCA | 60.5% | 77.7%
UAACCAUACAUGUAAACCA | 57.4% | 99.6%
UAACCCAACAUGUAAACCA | 78.3% | 87.4%
UAACCCCACAUGUAAACCA | 22.9% | 2.63%
UAACCCGACAUGUAAACCA | 59.2% | 121%
UAACCCUACAUGUAAACCA | 53.6% | 81.1%
UAACCGAACAUGUAAACCA | 55.8% | 106%
UAACCGCACAUGUAAACCA | 66.6% | 87.5%
UAACCGGACAUGUAAACCA | 44% | 89.6%
UAACCGUACAUGUAAACCA | 61.2% | 90.1%

Sequence | cell viability [1] | cell viability [2]
UAACCUAACAUGUAAACCA | 63.1% | 94%
UAACCUCACAUGUAAACCA | 18.4% | 90.9%
UAACCUGACAUGUAAACCA | 50.1% | 102%
UAACCUUACAUGUAAACCA | 55% | 102%
UAACGAAACAUGUAAACCA | 58% | 119%
UAACGACACAUGUAAACCA | 40.4% | 110%
UAACGAGACAUGUAAACCA | 60.4% | 116%
UAACGAUACAUGUAAACCA | 56.5% | 117%
UAACGCAACAUGUAAACCA | 47.1% | 98.1%
UAACGCCACAUGUAAACCA | 59.1% | 91.8%
UAACGCGACAUGUAAACCA | 63.6% | 105%
UAACGCUACAUGUAAACCA | 56.1% | 118%
UAACGGAACAUGUAAACCA | 48.3% | 111%
UAACGGCACAUGUAAACCA | 16.6% | 82.4%
UAACGGGACAUGUAAACCA | 51.8% | 81.4%
UAACGGUACAUGUAAACCA | 29.8% | 92%
UAACGUAACAUGUAAACCA | 80.3% | 86.8%
UAACGUCACAUGUAAACCA | 53.2% | 98.9%
UAACGUGACAUGUAAACCA | 58% | 118%
UAACGUUACAUGUAAACCA | 73.9% | 111%
UAACUAAACAUGUAAACCA | 67.1% | 84.5%
